# Several values for one entry are separate records, joined by “and”; a condition that tells them apart may be missing. Equal entries are not always repeated. Screen size: about 75,000 compounds; about 35 (0.05%) were called active. Calls come from the whole dose curve; as a rule, active = well fitted inhibition curve with a large enough effect; inconclusive = small, poorly fitted or top-dose-only effect; inactive = no such curve, though single readings can be large or run the other way. The entries are a selection whose mix differs from that of the whole data set. A structure can be active in one record and inactive in another.
# Molecular target: Breast cancer type 1 susceptibility protein (Homo sapiens) (UniProt P38398)
# Chain of UniProt P38398 (P38398 whole entry, looked up): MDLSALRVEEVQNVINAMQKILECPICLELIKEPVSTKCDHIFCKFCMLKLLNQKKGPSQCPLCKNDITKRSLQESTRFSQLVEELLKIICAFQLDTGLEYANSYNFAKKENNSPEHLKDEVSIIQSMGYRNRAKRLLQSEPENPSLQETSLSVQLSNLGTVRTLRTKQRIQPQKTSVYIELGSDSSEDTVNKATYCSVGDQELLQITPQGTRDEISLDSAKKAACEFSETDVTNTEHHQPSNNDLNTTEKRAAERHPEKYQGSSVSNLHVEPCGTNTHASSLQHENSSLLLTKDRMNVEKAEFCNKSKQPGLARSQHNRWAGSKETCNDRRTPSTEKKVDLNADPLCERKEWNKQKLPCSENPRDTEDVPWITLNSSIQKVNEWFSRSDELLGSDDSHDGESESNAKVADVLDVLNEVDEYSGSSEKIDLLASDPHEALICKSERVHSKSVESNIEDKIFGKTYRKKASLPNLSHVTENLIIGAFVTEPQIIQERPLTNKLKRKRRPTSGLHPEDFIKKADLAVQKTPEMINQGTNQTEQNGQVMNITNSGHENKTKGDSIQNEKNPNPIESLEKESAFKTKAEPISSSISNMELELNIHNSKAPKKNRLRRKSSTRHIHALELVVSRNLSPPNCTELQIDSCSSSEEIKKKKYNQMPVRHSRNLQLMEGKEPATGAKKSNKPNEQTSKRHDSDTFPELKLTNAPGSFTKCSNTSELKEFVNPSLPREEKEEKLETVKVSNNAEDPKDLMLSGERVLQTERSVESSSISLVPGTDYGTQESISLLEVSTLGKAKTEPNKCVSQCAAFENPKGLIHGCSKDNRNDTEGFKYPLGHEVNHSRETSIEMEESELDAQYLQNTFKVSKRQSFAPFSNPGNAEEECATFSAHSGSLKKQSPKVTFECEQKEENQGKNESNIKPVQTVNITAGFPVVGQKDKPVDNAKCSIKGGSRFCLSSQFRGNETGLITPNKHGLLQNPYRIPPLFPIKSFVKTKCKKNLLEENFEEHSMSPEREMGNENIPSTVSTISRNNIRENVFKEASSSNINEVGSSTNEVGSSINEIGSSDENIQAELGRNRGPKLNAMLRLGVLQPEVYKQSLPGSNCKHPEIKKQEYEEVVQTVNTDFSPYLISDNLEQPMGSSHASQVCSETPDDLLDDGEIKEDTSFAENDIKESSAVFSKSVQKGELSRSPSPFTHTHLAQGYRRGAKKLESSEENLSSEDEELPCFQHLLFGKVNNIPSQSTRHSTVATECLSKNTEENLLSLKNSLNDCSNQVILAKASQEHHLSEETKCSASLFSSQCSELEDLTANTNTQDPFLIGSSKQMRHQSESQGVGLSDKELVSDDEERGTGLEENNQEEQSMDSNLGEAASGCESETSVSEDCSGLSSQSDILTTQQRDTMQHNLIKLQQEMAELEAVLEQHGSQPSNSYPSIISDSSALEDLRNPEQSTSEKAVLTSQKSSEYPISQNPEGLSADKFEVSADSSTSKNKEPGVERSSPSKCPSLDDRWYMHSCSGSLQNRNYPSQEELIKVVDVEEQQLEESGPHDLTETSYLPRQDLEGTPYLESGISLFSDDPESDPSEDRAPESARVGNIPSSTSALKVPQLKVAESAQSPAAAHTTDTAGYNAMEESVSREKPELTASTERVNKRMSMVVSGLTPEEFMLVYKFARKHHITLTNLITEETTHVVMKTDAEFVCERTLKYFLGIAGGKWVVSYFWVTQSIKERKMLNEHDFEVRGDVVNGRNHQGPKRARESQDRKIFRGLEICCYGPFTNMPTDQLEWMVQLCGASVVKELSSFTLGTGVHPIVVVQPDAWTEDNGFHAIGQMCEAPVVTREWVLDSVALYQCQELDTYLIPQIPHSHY
# Assay: qHTS Assay for Inhibitors of BRCT-Phosphoprotein Interaction (Green Fluorophore);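 for activity change, negative = inhibition: plate controls were peptide without protein for full effect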
# Details: BRCA1 BRCT-phosphopeptide binding, green fluorescence polarization; series mostly up to 76.9 µM; activity change, negative = inhibition: at the top concentration
# Description: NIH Molecular Libraries Screening Centers Network [MLSCN]
# NIH Chemical Genomics Center [NCGC]
# PI Name: Natarajan, Amarnath; University of Texas
# A complex of BRCT (C-terminal portion of BRCA1, MW ~35 kDa, His-tagged) and fluorescently labeled pBACH1 phosphorylated 10 aa peptide fragment of BACH1, a helicase implicated in DNA repair, is incubated with library members. Inhibitors of BRCT-pBACH1 binding are detected by a decrease in the fluorescence polarization (FP) of the fluorophore. In order to minimize the effect of fluorescence artifacts and to increase the overall robustness of the screen, the compound library members were incubated in separate reactions with fluorescein labeled probe-protein complexes. Protein and labeled probes were supplied by Dr. Amarnath Natarajan, Department of Pharmacology and Toxicology, University of Texas Medical Branch Galveston, TX.
# Assay Buffer: 16mM Na2HPO4, 4 mM NaH2PO4, 150 mM NaCl, 1 mM EDTA, 1 mM DTT, 0.02% NaN3, and 0.01% Tween 20 at pH 7.3.
# 100 nM labeled decapeptide/250 nM protein in columns 1, 2, 5 - 48. Titration of unlabeled decapeptide control (from 10 mM, then 1:2 dilution in duplicate) pin-transferred to column 2, rows 1 to 16. Column 1 is neutral.
# Three uL of reagents were dispensed to 1536-well Greiner black solid-bottom plates. Compounds and controls (23 nL) were transferred
# via Kalypsys PinTool. The plates were incubated for 12 min at room temperature, and then read on ViewLux (Perkin-Elmer) High throughput CCD imager using FITC for the fluorescein-labeled decapeptide probe polarization filter sets. During dispense, reagent bottles were kept submerged into 4 deg C water bath and all liquid lines were covered with aluminum foil to minimize probe and protein degradation. All screening operations were performed on a Kalypsys robotic system (Kalypsys, Inc., San Diego, CA) containing one RX-130 and two RX-90 anthropomorphic robotic arms. The timing and order of assay plates passing through the screening system were adjusted such that each compound library plate was assayed against the fluorescein- and rhodamine-labeled assay systems at immediately adjacent time points.
# Potency is the fitted concentration of half-maximal effect.
SMILES,"activity change, negative = inhibition",Potency
N=C(N)c1ccc(OCCCCCOc2ccc(C(=N)N)cc2)cc1 (tested in a mixture with another compound),inactive: 22.5%,
CC[C@@]1(O)C(=O)OCc2c1cc1n(c2=O)Cc2cc3c(CN(C)C)c(O)ccc3nc2-1,inactive: 1.02% [at 3.08 µM],
CCN(C(C)=O)c1nnc(CSc2nc3ccccc3s2)s1,inactive: 30.5%,
Cc1nc(N=Nc2cc(S(=O)(=O)O)c3cc([N+](=O)[O-])cc(S(=O)(=O)O)c3c2)c(COP(=O)(O)O)c(C=O)c1O,inactive: -5.92%,
N#Cc1sc2nc3c(c(-c4ccco4)c2c1N)CCCC3,inactive: 35.1%,
O=c1[nH]c2cc3c(cc2cc1C(c1nnnn1C1CCCCC1)N1CCSCC1)OCCO3 (stereo unspecified),inactive: 37.5%,
CCOc1ccc2noc3c2c1C(=O)c1ccccc1-3,,active: 3.98 µM
COCCn1c(=O)c(-c2ccc(Cl)cc2)nc2cnc(N(C)C)nc21,inactive: 36.5%,
CN1CCc2nc(NC(=O)c3cccc(S(=O)(=O)N4CCc5ccccc54)c3)sc2C1,inactive: 54.4%,
Cn1c(=O)cc(N2CCc3ccccc32)[nH]c1=O,inactive: 118%,
N#CC1=C(N)SC(N)=C(C#N)C1CCc1ccccc1,inactive: 80.2%,
CC(C)(C)NC(=O)CSc1nc(O)cc(=O)n1-c1ccccc1F,inactive: 52.5%,
COc1cc(/C=C(\C#N)C(=O)c2ccc(O)c(O)c2)cc(I)c1O,inactive: 93.4%,
O=C1Nc2ccc(I)cc2/C1=C/c1cc(Br)c(O)c(Br)c1,inactive: 40.6%,
COc1ccc(Oc2ncc3nc(C)c(=O)n(Cc4ccc(F)cc4)c3n2)cc1,inactive: 49.4%,
CN(C)c1ncc2nc(CCc3ccccc3)c(=O)n(Cc3ccc(F)cc3)c2n1,inactive: 35.1%,
COc1cccc(Nc2ncc3nc(CCc4ccccc4)c(=O)n(CCC#N)c3n2)c1,inactive: 34.2%,
O=c1oc2c3c4c(cc2cc1-c1nc2ccccc2[nH]1)CCCN4CCC3,inactive: 40.8%,
O=C1OC2(c3ccc(O)cc3Oc3cc(O)ccc32)c2c1c(-c1ccccc1)c(-c1ccccc1)c(-c1ccccc1)c2-c1ccccc1,inactive: 34.5% [at 15.4 µM],
CCNc1ncc2nc(-c3ccc(OC)cc3)c(=O)n(Cc3cccc(OC)c3)c2n1,inactive: 80.7%,
O=c1c(-c2ccc(F)cc2)nc2cnc(Nc3ccccc3)nc2n1Cc1cccs1,inactive: 33%,
Cc1cccc(S(=O)(=O)C(C#N)c2nc3ccccc3nc2N2CC(C)OC(C)C2)c1 (stereo unspecified),inactive: 51.3%,
COCCn1c(=O)c(-c2cccs2)nc2cnc(Nc3ccccc3)nc21,inactive: 60.3%,
CC1=CC(=C(C#N)c2nc3ccccc3s2)C=C(C)N1Cc1ccco1,inactive: 51.9%,

SMILES,"activity change, negative = inhibition",Potency
CCOc1ccccc1C1C(C#N)=C(N)SC(N)=C1C#N,inactive: 108%,
COc1cccc(Cn2c(=O)c(-c3cccc(C#N)c3)nc3cnc(Nc4ccccc4)nc32)c1,inactive: 18.4%,
COc1ccc2noc3c2c1C(=O)c1ccccc1-3,,active: 3.16 µM
Cc1ccc(Cn2nc(C)c(NC(=O)c3cc(-c4ccco4)on3)c2C)cc1,inactive: 33.4%,
CN1CCc2c(sc3c2C(=O)NC(c2cccc(OC(=O)c4cccs4)c2)N3)C1 (stereo unspecified),inactive: 31.7%,
N#CC1=C(N)OC2=C(CCC/C2=C/c2ccoc2)C1c1ccoc1 (stereo unspecified),inactive: 32%,
CCNc1ncc2nc(-c3ccc(Cl)cc3)c(=O)n(-c3ccccc3)c2n1,inactive: 99.2%,
CSc1ccc(C2C(C#N)=C(N)Oc3c2ccc(=O)c2c(C)oc(C)c32)cc1 (stereo unspecified),inactive: 36.6%,
Cc1nn(Cc2ccc(F)cc2)c(C)c1NC(=O)c1cc(-c2ccco2)on1,inactive: 30.6%,
CCOc1ccc(C2C(C#N)=C(N)SC(N)=C2C#N)cc1OCC,inactive: 176%,
COc1cc2c(C=O)c3c4c(cc(OC)c(OC)c4c2cc1OC)CCN3C,inactive: 68.4%,
N#CC(C(=O)NCc1ccccc1)c1nc2ccccc2nc1N1CCCC1 (stereo unspecified),inactive: -106%,
COC(=O)[C@@]1(Cc2ccc(OC)cc2)[C@H]2c3cc(C(=O)N(C)C)n(Cc4nc5ccccc5[nH]4)c3C[C@H]2CN1C(=O)c1ccccc1,inactive: 32.9%,
Cc1nnc2sc(-c3ccc(NC(=O)c4cccnc4)cc3)nn12,inactive: 63.8%,
CCNc1ncc2nc(CCc3ccccc3)c(=O)n(-c3ccccc3)c2n1,inactive: 47.5%,
O=C(O)C1=CC(=C(c2ccc(O)c(C(=O)O)c2)c2ccc(O)c(C(=O)O)c2)C=CC1=O,,active: 12.6 µM and active: 15.8 µM
CC(=O)c1sc2nc(-c3cccs3)cc(C(F)(F)F)c2c1N,inactive: 41.7%,
CCNc1ncc2nc(-c3cccs3)c(=O)n(-c3ccc(OC)cc3)c2n1,inactive: 78.3%,
CN(C)c1ncc2nc(CCc3ccccc3)c(=O)n(-c3ccccc3)c2n1,inactive: 35.4%,
CC1(C)c2ccccc2N2CC(=O)N(CC(N)=O)C21C (stereo unspecified),inactive: 63.1%,
CCc1ccc(C2C(C#N)=C(N)SC(N)=C2C#N)cc1,inactive: 120%,
CCNc1ncc2nc(-c3ccc(F)cc3)c(=O)n(CCC#N)c2n1,inactive: 49.9%,
COc1ccc(C2C(C(C)=O)=C(C)N=c3s/c(=C\c4cc(C)n(C)c4C)c(=O)n32)c(OC)c1 (stereo unspecified),inactive: 57%,
COc1ccc2c(c1)S/C(=C\C(=O)c1ccncc1)N2C,inactive: 59.2%,

SMILES,"activity change, negative = inhibition",Potency
CN(C)c1ccc(/C=C/c2cc[n+]([O-])cc2)cc1,inactive: 53.3%,
Cc1ccccc1N1C(=O)c2cccc3c(N(C)CCO)ccc(c23)C1=O,inactive: 32.3%,
N#C/C(C(=O)c1ccccc1)=C1/SC=C(N)N1c1ccccc1,inactive: 83%,
CN(C)c1ccc(N/C=C/C(=O)c2ccc(F)cc2)cc1,inactive: 33.6%,
CCNc1ncc2nc(-c3cccs3)c(=O)n(-c3ccccc3)c2n1,inactive: 30.6%,
CCOC(=O)c1ccc2c(c1)nc(SC/C(O)=C(\C#N)c1nc3ccccc3[nH]1)n2CC,inactive: 54.6%,
Cc1ccc(N=c2oc3cc(O)ccc3cc2C(N)=O)cc1,inactive: 32.7%,
CCN1C(=O)c2cccc3c(NC(=O)c4ccc5c(c4)OCCO5)ccc1c23,inactive: 47.6%,
CCOc1cc(C2C(C#N)=C(N)SC(N)=C2C#N)ccc1OCCN1CCOCC1,inactive: 54.1%,
COc1cccc(Nc2ncc3nc(-c4ccc(Cl)cc4)c(=O)n(CCC#N)c3n2)c1,inactive: 37.5%,
COc1cc(/C=C/C(=O)CC(=O)/C=C/c2ccc(O)c(OC)c2)ccc1O,,inactive
CCOc1ccc(C2C(C#N)=C(N)SC(N)=C2C#N)c(OCC)c1,inactive: 131%,
Nc1ccc2c3c(cccc13)C(=O)NC2=O,,active: 12.6 µM
O=S(=O)(Nc1nc2ccccc2nc1Nc1ccc2c(c1)OCCO2)c1cccs1,inactive: 40.4%,
CCNc1nc(N)c(C(=O)c2ccc(Cl)s2)s1,inactive: 48.2%,
CC(=O)c1c(O)c(C)c(O)c2c1OC1=CC(=O)C(C(C)=O)C(=O)C12C (stereo unspecified),inactive: 58.7%,
Cc1nnc2sc(-c3ccc(NC(=O)c4ccc(-c5ccc(Cl)cc5Cl)o4)cc3)nn12,inactive: 37.1%,
COc1ccc(-c2nc3cnc(Nc4ccccc4)nc3n(CCC#N)c2=O)cc1,inactive: 123%,
C=CCN(C(=O)CSc1nc2[nH]ncc2c(=O)n1-c1ccccc1OC)c1ccccc1,inactive: 33%,
O=C(O)CN(CC(=O)O)Cc1cc2c(-c3ccccc3C(=O)O)c3cc(CN(CC(=O)O)CC(=O)O)c(=O)cc-3oc2cc1O,,active: 0.126 µM
CC1CCCCN1Cc1nc2c(c(=O)n(C)c(=O)n2C)n1Cc1c(F)cccc1Cl (stereo unspecified),,active: 0.631 µM
N#CC1=C(N)SC(N)=C(C#N)C1c1ccc(C(F)(F)F)cc1,inactive: 33.7%,
CCOC(=O)SC1=N/C(=C\c2ccc(N(C)C)cc2)C(=O)S1,inactive: 39.6%,
Cn1c(NC(=O)c2ccccc2Br)cc(=O)n(C)c1=O,,active: 2.51 µM

SMILES,"activity change, negative = inhibition",Potency
CCN1C(=O)/C(=C2/SC(C)=C(C)N2CC)SC1=S,inactive: 36.8%,
N#CC1=C(N)OC(c2ccccc2)=C(C#N)C1c1ccc2c(c1)OCO2 (stereo unspecified),inactive: 30.3%,
N#CCCn1c(=O)c(-c2cccs2)nc2cnc(Oc3cccc(Cl)c3)nc21,inactive: 62.5%,
N#CC1=C(N)SC(N)=C(C#N)C1c1ccnc2ccccc12,inactive: 111%,
COc1cc(-c2ccc(N=Nc3ccc4c(S(=O)(=O)O)cc(S(=O)(=O)O)c(N)c4c3O)c(OC)c2)ccc1N=Nc1ccc2c(S(=O)(=O)O)cc(S(=O)(=O)O)c(N)c2c1O,inactive: -5.56% [at 34.4 µM],
Cc1cc2nc3c(=O)[nH]c(=O)nc-3n(CC(O)C(O)C(O)CO)c2cc1C (stereo unspecified),,active: 3.98 µM and active: 12.6 µM
CC(=C1C2C=CC1C1C(=O)NC(=O)C21)c1ccccc1 (stereo unspecified),inactive: 40.9%,
COc1ccc(Oc2ncc3nc(-c4cccs4)c(=O)n(-c4ccccc4)c3n2)cc1,inactive: 34%,
O=C(O)c1ccc(Cl)c2c1C1C=CCC1C(c1ccccn1)N2 (stereo unspecified),,active: 31.6 µM
COc1ccc(-c2nc3cnc(Nc4ccccc4)nc3n(Cc3cccs3)c2=O)cc1,inactive: 9.24%,
CC(=O)N1C(=O)C(=C2C=C(C)OC(C)=C2)c2ccccc21,inactive: 94.8%,
COc1cccc(Cn2c(=O)cnc3cnc(Nc4ccccc4)nc32)c1,inactive: 35%,
CC1=C(C(=O)Nc2ccccc2)C(c2cccs2)C(C#N)=C(SCC#N)N1 (stereo unspecified),inactive: 32.1%,
CCNc1ncc2nc(-c3cn(C)c4ccccc34)c(=O)n(-c3ccc(OC)cc3)c2n1,inactive: 24%,
CCC(c1nnc(SCc2nc3ccccc3s2)n1Cc1ccccc1)N(C)C (stereo unspecified),inactive: 34%,
CC(=Nc1ccc(O)cc1)c1sc2ccccc2c1O,inactive: 55.1%,
CCN(CC)c1ccc2c(c1)OC(N)=C(C#N)C2c1cccnc1 (stereo unspecified),inactive: 71.6%,
COc1ccc(-c2nc(C(N)=O)c3[nH]c(=O)n(-c4cccc(C)c4)c3n2)c(OC)c1,inactive: 31.8%,
O=C(CSc1nc2[nH]ncc2c(=O)n1-c1ccccc1)N1CCCc2ccccc21,inactive: 109%,
CC(=O)OC1CCC2C3CCc4cc(O)ccc4C3CCC12C (stereo unspecified),inactive: 40.9% [at 3.08 µM],
COc1ccc(-c2nc3cnc(N(C)C)nc3n(CCC#N)c2=O)cc1,inactive: 3.63%,
CCN(CC)CCCC(C)Nc1c2ccc(Cl)cc2nc2ccc(OC)cc12 (stereo unspecified),inactive: -9.68% [at 3.08 µM],
Cc1ccc(C2C(C#N)=C(N)Oc3c2sc2ccccc32)o1 (stereo unspecified),inactive: 56.5%,
O=c1cc(O)c2c(=O)n(-c3ccccc3)c3ccccc3c2o1,inactive: 30.9%,
